# Publication PMC4336329 (PLoS ONE, 2015)
# Screen size: about 310,000 compounds; about 2,200 (0.71%) showed an effect of 50% or more. The effect is printed as a negative number. The list shows a part of the results.
# Biological target: human ether-à-go-go-related gene (hERG) potassium channel (human, UniProt Q12809)
# Assay: primary screen, population patch clamp on CHO cells stably expressing hERG
# Chain of human ether-à-go-go-related gene (hERG) potassium channel (Q12809 whole entry, looked up): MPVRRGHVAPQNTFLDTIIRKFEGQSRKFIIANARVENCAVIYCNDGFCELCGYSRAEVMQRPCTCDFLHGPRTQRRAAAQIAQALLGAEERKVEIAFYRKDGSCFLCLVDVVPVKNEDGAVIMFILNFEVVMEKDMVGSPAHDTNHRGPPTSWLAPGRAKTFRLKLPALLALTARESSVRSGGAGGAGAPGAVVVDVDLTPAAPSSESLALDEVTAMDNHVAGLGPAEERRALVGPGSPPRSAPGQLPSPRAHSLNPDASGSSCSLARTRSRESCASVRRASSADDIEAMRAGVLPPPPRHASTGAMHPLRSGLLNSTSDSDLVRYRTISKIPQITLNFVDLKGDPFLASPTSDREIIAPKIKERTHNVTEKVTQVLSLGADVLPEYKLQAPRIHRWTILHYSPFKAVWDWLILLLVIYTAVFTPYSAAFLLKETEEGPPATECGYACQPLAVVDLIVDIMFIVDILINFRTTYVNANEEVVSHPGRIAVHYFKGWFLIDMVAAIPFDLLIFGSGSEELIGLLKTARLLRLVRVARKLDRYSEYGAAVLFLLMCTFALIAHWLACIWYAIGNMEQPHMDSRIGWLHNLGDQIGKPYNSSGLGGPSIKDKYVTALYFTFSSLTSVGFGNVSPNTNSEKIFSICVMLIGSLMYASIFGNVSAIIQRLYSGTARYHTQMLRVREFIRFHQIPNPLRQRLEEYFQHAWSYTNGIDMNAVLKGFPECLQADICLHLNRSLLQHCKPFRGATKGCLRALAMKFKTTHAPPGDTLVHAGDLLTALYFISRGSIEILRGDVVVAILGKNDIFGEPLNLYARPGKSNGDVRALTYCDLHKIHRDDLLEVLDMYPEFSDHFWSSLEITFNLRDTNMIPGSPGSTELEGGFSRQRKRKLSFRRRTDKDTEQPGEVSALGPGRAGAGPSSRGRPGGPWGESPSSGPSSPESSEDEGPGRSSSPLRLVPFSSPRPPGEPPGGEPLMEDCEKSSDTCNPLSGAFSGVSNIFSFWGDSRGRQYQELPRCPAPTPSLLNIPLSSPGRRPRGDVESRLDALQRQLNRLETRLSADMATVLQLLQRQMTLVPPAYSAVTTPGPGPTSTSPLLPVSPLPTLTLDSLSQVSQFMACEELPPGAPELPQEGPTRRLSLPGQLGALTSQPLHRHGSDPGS
row,Compound,"hERG current change (%, negative = inhibition) at 1uM"
1,COc1ccc(S(=O)(=O)Nc2ccccn2)cc1C,9.56%
2,CCc1ccccc1NC(=O)NC(C)c1ccc2c(c1)OCO2 (stereo not drawn),14.6%
3,CC(C)(C)C(=O)Nc1nnc(SCC(=O)NCc2ccco2)s1,8.98%
4,Cc1ccc(C(=O)Nc2ccc3c(c2)C(=O)N(CC2CCCO2)C3=O)cc1 (stereo not drawn),7.95%
5,CC(=C/c1ccco1)/C=N/N1CCN(c2ccccc2)CC1,-1.96%
6,CCOc1ccccc1NC(=O)C(C)CC (stereo not drawn),6.18%
7,COc1ccc(NC(=O)C2C3C=CC4(O3)C2C(=O)N(CCN2CCCCC2)C4C(=O)NC2CCCCC2)cc1 (stereo not drawn),12.8%
8,O=C(O)[C@]1(S(=O)(=O)c2ccccc2)C[C@@H]2ON=C(c3cccc(Br)c3)[C@@H]2C1,5.67%
9,COc1ccc(N2CCN(CC(=O)NCc3ccc(Cl)cc3)CC2)cc1,-33%
10,CCN(CC(=O)Nc1c(F)cccc1F)C(=O)CCSc1ccc(C)cc1,-7%
11,CCCCn1c(SCC(=O)N2CCC(C)CC2)nc2cc(S(N)(=O)=O)ccc21,-11.7%
12,CC(CN1CCC(n2nccc2NC(=O)C2CCCC2)CC1)c1ccccc1 (stereo not drawn),2.95%
13,CCOC(CCNC(=O)c1cc2c(=O)[nH]c3ccccc3c2s1)OCC,12.6%
14,CC12CN(C(=O)c3ccco3)CC(c3ccccc3)(CN(C(=O)c3ccco3)C1)C2=O,4.85%
15,CCC1CN(C(=O)NCc2cccc(OC)c2)c2cc(Cl)ccc2O1 (stereo not drawn),13.3%
16,CCN(C(=O)COC(=O)C1CCN(S(=O)(=O)c2ccc(C)c(C)c2)CC1)C1CCCCC1,12.4%
17,CCC(C(=O)OCC(=O)c1c(N)n(CC(C)C)c(=O)n(C)c1=O)c1ccccc1 (stereo not drawn),9.28%
18,O=C(O)CCC(CNS(=O)(=O)c1ccccc1)C(F)(F)F (stereo not drawn),10.4%
19,COC(=O)C1=C(C(=O)OC)[C@@H]2N(C)c3ccccc3[C@@]23C[C@@H](CO)N=C3N1,11.9%
20,CCOc1ccc(NC(=O)CN(C)CC(=O)Nc2ccccc2SC)cc1OCC,2.8%
21,CCc1nnc(NC(=O)Cc2ccc(S(=O)(=O)N3CCCCC3)cc2)s1,6.7%
22,Cc1ccccc1N(CC(=O)O)S(C)(=O)=O,9.79%
23,COc1ccc(C)cc1NC(=O)C(c1ccccc1)N1CCNC(=O)C1 (stereo not drawn),10.4%

row,Compound,"hERG current change (%, negative = inhibition) at 1uM"
1,CC(=O)c1ccc(NC2=NCCCS2)cc1,12%
2,Cc1ccccc1OCCN=Cc1c(O)n(C)c(=O)n(C)c1=O,10.2%
3,Cc1cc(NC(=O)CCCSc2nc(-c3ccco3)cc(C(F)(F)F)n2)n(-c2ccccc2)n1,13%
4,CCCCCCCc1n[nH]c(=S)n1Cc1ccccc1,8.24%
5,COc1ccc(/C(O)=C2/C(=O)C(=O)N(CCCC(=O)O)C2c2ccc(OC)cc2)cc1 (stereo not drawn),11.6%
6,CCc1cccc(NS(=O)(=O)c2cccc3cccnc23)c1,9.17%
7,CCOC(=O)C1CCCN(S(=O)(=O)c2cc(Br)cc3c2N(C(C)=O)CC3)C1 (stereo not drawn),0.423%
8,Cc1cc(Cl)ccc1NC(=O)c1ccc2c(c1)OCO2,13.6%
9,Cc1ccc(OCC(=O)O/N=C(\N)c2ccncc2)cc1C,10.7%
10,Cc1ccc(NP(=O)(Nc2ccc(C)cc2)Nc2ccc(C)cc2)cc1,8.75%
11,ONC(=Nc1ccccc1)c1ccc(Cl)cc1,1.54%
12,CN(C(=O)CC1C(=O)NCCN1Cc1ccc(F)cc1)C1CCOCC1 (stereo not drawn),11%
13,C=CCN1C(=O)c2ccc(C(=O)N(C)Cc3ccc(C)o3)cc2C1=O,15.7%
14,Cc1cccnc1NC(=O)C(C)Oc1ccccc1 (stereo not drawn),6.99%
15,CC(C)c1nnc(NC(=O)CSc2nnc(-c3ccco3)o2)s1,5.35%
16,COc1ccccc1CCNS(=O)(=O)c1cc2c3c(c1)CCN3C(=O)CC2,11.4%
17,CNC(=S)N(CCN(C)C)Cc1cc2cc3c(cc2[nH]c1=O)OCO3,6.86%
18,COc1ccc(CCn2c(N)cc(=O)[nH]c2=S)cc1OC,5.71%
19,O=C(O)c1ccc(N=NN2CCCCC2)cc1,0.696%
20,COc1cc(NC(=O)CSc2ccccc2)c(C(=O)O)cc1OC,15.5%
21,Cc1nn(C(C)C(=O)N2CCN(c3ccccn3)CC2)c(=O)c2cc3occc3n12 (stereo not drawn),6.34%
22,CC(C)(CC(=O)O)CC(=O)NCc1c(Cl)cccc1Sc1ccc(Cl)cc1,3.65%
23,Cc1cccc(-n2c(O)c(C=Nc3c(C)n(C)n(-c4ccccc4)c3=O)c3ccccc3c2=O)n1,11.3%

row,Compound,"hERG current change (%, negative = inhibition) at 1uM"
1,COC(=O)c1ccc(N(CC(=O)NC2CCCC2)C(=O)CNC(=O)c2ccco2)cc1,-6.95%
2,CNc1nc(Cl)nc(NC(C)(C)C)n1,11.1%
3,CCc1cccc(NC(=O)C2CCN(S(=O)(=O)c3ccc4[nH]c(=O)ccc4c3)CC2)c1,2.78%
4,Cc1ccc(-n2c(O)c(C=NC3CCCCC3N)c(=O)[nH]c2=O)cc1C (stereo not drawn),9.81%
5,CCc1ccc(OCC(=O)N2c3ccccc3CCc3ccccc32)cc1,1%
6,COc1cc(NC(=O)CSc2nnc3ccc(-c4ccncc4)nn23)cc(OC)c1,-1.12%
7,COc1cc(-c2nc(C)c(C(C)=O)n2O)ccc1OCC(=O)Nc1ccc(F)cc1,-1.77%
8,O=C(c1cc(COc2ccc3ncccc3c2)on1)N1CCC(O)CC1,15.9%
9,COc1ccc(S(=O)(=O)NCc2cc(=O)n(C)c(=O)n2C)cc1F,6.86%
10,CCC(C)N(C(=O)COC(=O)c1nc2nc(C)cc(C)n2n1)C1CCS(=O)(=O)C1 (stereo not drawn),21.2%
11,O=C(NCc1ccccc1)c1cnsn1,7.4%
12,O=[N+]([O-])c1c(Nc2ccc(Br)cc2)ccc2nonc12,9.31%
13,O=c1oc2ccccc2c2c1SC(C(F)(F)F)C2 (stereo not drawn),1.61%
14,Cc1ccc(S(=O)(=O)NCCNC(=O)CN2CCOCC2)cc1,11.1%
15,O=C1c2ccccc2-c2onc3ccc(NCc4ccco4)c1c23,15.3%
16,COc1ccc([N+](=O)[O-])cc1NC1C2CC3CC(C2)CC1C3 (stereo not drawn),17.1%
17,Cc1cc(Cl)ccc1NC(=O)CN1CCC(C(O)(c2ccccc2)c2ccccc2)CC1,10.3%
18,Cc1cccc2sc(N(CCCN(C)C)C(=O)c3ccc4ncsc4c3)nc12,2.31%
19,CC(=O)Nc1cccc(/C(C)=N/NC(=O)c2ccc(O)cc2)c1,6.84%
20,Cc1c(OCC(=O)NCc2ccccn2)ccc2c(-c3ccccc3)cc(=O)oc12,15%
21,Cc1ccc(NCc2ccc(O)c3ncccc23)cc1C,16.1%
22,Cc1ccc(C(C(=O)NC(C)(C)C)N(C(=O)CCC(=O)Nc2ccccn2)c2ccccc2F)cc1 (stereo not drawn),-9.88%
23,O=C(NCCc1ccccc1)C1CCN(C(=O)NCc2ccccc2)CC1,18%

row,Compound,"hERG current change (%, negative = inhibition) at 1uM"
1,COc1ccc(NC(=O)CS(=O)(=O)c2ccccc2Cl)cc1,5.25%
2,COc1ccccc1/C=N/Nc1nccnc1Cl,-0.808%
3,N#Cc1cc2cc3c(cc2nc1SCC(=O)OC1CCCCC1)OCO3,9.04%
4,CCOc1ccc(Cl)cc1CSc1n[nH]c(C)n1,6.74%
5,Cc1cccc(NC(=S)N/C(=N/S(=O)(=O)c2ccccc2)c2ccccc2)c1,12.3%
6,N#Cc1ccc(N2CCOCC2)c([N+](=O)[O-])c1,3.4%
7,Cc1cccc2c(C(=O)n3cccn3)cc(-c3ccccc3Cl)nc12,12.7%
8,O=C(O)c1nn(-c2ccccc2-c2n[nH]c(=O)[nH]c2=O)c(=O)[nH]c1=O,11.5%
9,CC(=O)c1ccc(NC(=S)NNC(=O)c2ccncc2)cc1,6.86%
10,Cc1sc2nc(CN3CCOCC3)nc(NS(=O)(=O)c3ccc4c(c3)OCCO4)c2c1C,13.1%
11,N#Cc1c(Cl)nc(-c2ccncc2)nc1-c1ccccc1,13.1%
12,CC(=O)C1=C(C)OC(N)=C(C#N)C1c1ccncc1 (stereo not drawn),9.29%
13,COC(=O)c1cccc(NC(=O)COc2cccc([N+](=O)[O-])c2)c1,18%
14,COc1cc(C(=O)O)cc(NC(=O)c2ccco2)c1OC,6.25%
15,O=C(CN1CCSc2ccccc21)NCCCc1ccccc1,1.91%
16,O=C(Nc1ccc([N+](=O)[O-])cc1)C1CC1(c1ccccc1)c1ccccc1 (stereo not drawn),4.79%
17,Cc1ccc(N(C)S(=O)(=O)c2cccc(C(=O)Nc3ccc(N4CCOCC4)cc3)c2)cc1,4.42%
18,O=C(C#Cc1ccccc1)Nc1ccc(F)cc1,16%
19,N#CCCSc1ccccc1NC(=O)c1cc(=O)c2ccccc2o1,-0.601%
20,CSc1nnc(-c2ccc(NC(N)=S)cc2)o1,7.15%
21,O=C(COC(=O)C1CC1)Nc1ccc2c(c1)OCO2,10.9%
